Data reported in PubChem BioAssay AID1347165 (National Center for Advancing Translational Sciences (NCATS), 2019).
Screen size: about 220,000 compounds; about 5,700 (2.6%) were called active. The shares of active, inactive and inconclusive entries below differ from those in the screen. Calls come from the whole dose curve; as a rule, active = well fitted inhibition curve with a large enough effect; inconclusive = small, poorly fitted or top-dose-only effect; inactive = no such curve, though single readings can be large or run the other way. Potencies of inconclusive entries are doubtful fits and often do not repeat.

Each molecule was assayed against Lysine-specific demethylase 5B (Homo sapiens) (UniProt Q9UGL1) (assay: Primary screen for KDM5B Histone Demethylases FDH-coupled qHTS). Settings: FDH-coupled NADH fluorescence (FDH is formaldehyde dehydrogenase); activity change, negative = inhibition: at 57.7 µM (top of the series) unless noted.
Outline: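 KDM5BΔAP (200 nM final) in 50 mM HEPES pH 7.5, 0.01% Tween-20 was preincubated 10 min at RT with compound over a concentration range. Substrate mix (H3K4me3 12.5 µM, α-KG 25 µM, Fe²⁺, ascorbate, NAD⁺, FDH) was added, and NADH fluorescence change over 30 min gave dose-response curves.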
Note: nearly all actives have a fitted effect of over 70% in size.
Potency is the fitted concentration of half-maximal effect; tags give direction and shape of the fitted curve.
Throughout, for activity change, negative = inhibition: 0% is about no effect.

Chain of UniProt Q9UGL1 (Q9UGL1 whole entry, looked up): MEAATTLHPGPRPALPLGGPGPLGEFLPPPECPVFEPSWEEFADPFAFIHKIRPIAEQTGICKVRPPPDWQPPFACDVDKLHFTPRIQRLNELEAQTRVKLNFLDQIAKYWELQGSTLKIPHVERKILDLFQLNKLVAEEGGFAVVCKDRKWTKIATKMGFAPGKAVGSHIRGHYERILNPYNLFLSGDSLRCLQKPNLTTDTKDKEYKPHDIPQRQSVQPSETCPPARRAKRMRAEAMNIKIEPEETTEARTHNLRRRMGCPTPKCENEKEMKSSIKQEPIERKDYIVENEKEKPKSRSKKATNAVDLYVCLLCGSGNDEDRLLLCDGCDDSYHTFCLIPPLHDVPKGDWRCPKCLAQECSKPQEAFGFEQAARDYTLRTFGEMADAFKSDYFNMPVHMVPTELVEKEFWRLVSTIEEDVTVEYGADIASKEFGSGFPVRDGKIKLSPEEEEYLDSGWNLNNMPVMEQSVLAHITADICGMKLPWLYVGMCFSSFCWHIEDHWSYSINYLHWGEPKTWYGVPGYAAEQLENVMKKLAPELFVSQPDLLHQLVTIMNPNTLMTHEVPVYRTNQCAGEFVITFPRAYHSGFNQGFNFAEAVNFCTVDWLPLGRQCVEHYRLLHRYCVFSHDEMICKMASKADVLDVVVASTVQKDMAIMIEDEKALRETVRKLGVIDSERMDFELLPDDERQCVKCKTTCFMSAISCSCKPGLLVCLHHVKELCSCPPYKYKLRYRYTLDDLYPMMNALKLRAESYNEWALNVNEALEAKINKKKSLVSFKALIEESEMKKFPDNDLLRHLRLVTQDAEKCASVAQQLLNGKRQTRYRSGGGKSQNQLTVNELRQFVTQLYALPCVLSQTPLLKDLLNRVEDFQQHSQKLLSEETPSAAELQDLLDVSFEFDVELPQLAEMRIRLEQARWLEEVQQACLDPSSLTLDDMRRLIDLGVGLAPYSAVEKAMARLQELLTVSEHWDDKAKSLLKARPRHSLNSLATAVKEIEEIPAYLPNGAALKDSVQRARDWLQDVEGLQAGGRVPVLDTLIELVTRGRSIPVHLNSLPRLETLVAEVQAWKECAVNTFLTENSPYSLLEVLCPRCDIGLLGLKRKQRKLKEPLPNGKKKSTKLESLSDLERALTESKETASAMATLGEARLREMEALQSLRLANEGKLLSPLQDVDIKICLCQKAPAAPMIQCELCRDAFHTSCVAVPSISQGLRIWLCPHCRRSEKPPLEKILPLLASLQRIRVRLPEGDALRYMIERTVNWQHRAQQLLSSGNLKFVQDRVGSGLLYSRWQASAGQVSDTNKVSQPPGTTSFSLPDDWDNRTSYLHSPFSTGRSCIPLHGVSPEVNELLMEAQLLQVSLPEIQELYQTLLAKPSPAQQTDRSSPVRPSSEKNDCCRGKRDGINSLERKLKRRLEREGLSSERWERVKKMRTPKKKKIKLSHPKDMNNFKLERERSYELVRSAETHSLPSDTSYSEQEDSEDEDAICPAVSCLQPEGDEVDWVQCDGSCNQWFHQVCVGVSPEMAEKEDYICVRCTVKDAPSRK

Q: O=C1CCN(c2ccccc2C(=O)N[C@@H]2CCOC[C@H]2OCCO)C(=O)N1 was tested. Which Potency did it give?
A: The Potency was inconclusive: 20 µM [inhibitor, partial curve, poor fit].

Q: For O=C(COC(=O)c1cc(-c2cccs2)nc2ccccc12)c1ccccc1, which Potency is on record?
A: Its Potency is inconclusive: 28.2 µM [inhibitor, partial curve, poor fit].

Q: For CN1CCCCCCN(Cc2cn(C)c3ccccc23)[C@H]2CCC[C@H]2C1=O, which Potency is on record?
A: Its Potency is inconclusive: 20 µM [inhibitor, partial curve].

Q: For CC(=O)Nc1ccc(S(=O)(=O)NC[C@@H]2C=C(C)[C@H](CC(=O)NCCN3CCOCC3)C[C@H]2C(C)C)cc1, which “activity change, negative = inhibition” value is on record?
A: Its value is inactive: -22%.

Q: How did the Potency turn out when O=C(Nc1ccc2oc(-c3cccc4c(Br)cccc34)nc2c1)c1ccc(F)cc1 was run?
A: The Potency was inconclusive: 8.91 µM [inhibitor, partial curve, poor fit].

Q: How did the Potency turn out when Cn1c(=O)c2c(c3ccccc31)OC(=O)CC2c1ccc(C(F)(F)F)cc1 (centres undefined) was run?
A: The Potency was inconclusive: 25.1 µM [inhibitor, partial curve, poor fit].

Q: With Cc1nc(-c2cc3ccc(OCC(=O)NC(CO)C(C)C)cc3oc2=O)cs1 (centres undefined) as the molecule, how does the “activity change, negative = inhibition” value read?
A: Its value is inactive: -4650%.

Q: Which Potency does the source give for C=CCN1C(=O)c2ccc(C(=O)OCC(=O)Nc3ccccc3OC)cc2C1=O here?
A: Its Potency is inconclusive: 3.55 µM [inhibitor, full curve, poor fit].

Q: How did the “activity change, negative = inhibition” value turn out when Cc1[nH]c2ccccc2c1C(=O)/C=C/c1ccc(F)c(F)c1 was run?
A: The value was inactive: -18%.

Q: For N#Cc1ccccc1N=Cc1ccc2ccccc2c1, which Potency is on record?
A: Its Potency is inconclusive: 25.1 µM [inhibitor, partial curve, poor fit].

Q: Which Potency does the source give for COc1ccc(-c2ccc3nnc(CNC(=O)c4cccn4C)n3n2)cc1 here?
A: Its Potency is active: 28.2 µM.

Q: How did the Potency turn out when O=C(NCC1CN(C(=O)Cc2ccc(C(F)(F)F)cc2)CC12CN(c1ccccc1)C2)c1ccccc1 (centres undefined) was run?
A: Its Potency is inconclusive: 20 µM [inhibitor, partial curve].

Q: Which Potency does the source give for CCCCN(C)CCNC(=O)c1ccc2c(=O)n(CCc3ccccc3)c(=O)[nH]c2c1 here?
A: Its Potency is inconclusive: 3.98 µM [inhibitor, partial curve, poor fit].

Q: Which Potency does the source give for O=C(COc1ccc2c(C(F)(F)F)cc(=O)oc2c1)NCc1cccs1 here?
A: The Potency was inconclusive: 14.1 µM [inhibitor, partial curve, poor fit].

Q: How did the Potency turn out when CN(C)C[C@@H]1CN(C)C[C@H]1NC(=O)c1nn(C)c2ccccc12 was run?
A: Its Potency is active: 31.6 µM.

Q: How did the “activity change, negative = inhibition” value turn out when CC(=O)Nc1ccc(NC(=O)CSc2ncnc3nc[nH]c23)cc1 was run?
A: Its value is inactive: 16.4%.

Q: O=C(CCCCCn1c(=O)c2sccc2n(CC(=O)Nc2cccc(Cl)c2)c1=O)NCc1ccc2c(c1)OCO2 was tested. Which Potency did it give?
A: The Potency was inconclusive: 1.26 µM [inhibitor, partial curve, poor fit].

Q: O=C1COCC2(CN(c3ccc(C(F)(F)F)cn3)C2)CN1c1cccnc1 was tested. Which Potency did it give?
A: The Potency was inconclusive: 35.5 µM [inhibitor, partial curve, poor fit].

Q: Which “activity change, negative = inhibition” value does the source give for COc1ccc(C(=O)NC2CCCN(c3nc4ncccc4o3)C2)cc1 (centres undefined) here?
A: Its value is inactive: -14.9%.

Q: How did the Potency turn out when C#CC(C)(C)NS(=O)(=O)c1cc(-c2nnc(Nc3ccc(C)cc3)c3ccccc23)ccc1C was run?
A: Its Potency is inconclusive: 25.1 µM [inhibitor, single point].

Q: Which Potency does the source give for O=C(Cc1ccsc1)N1CCC2(CC1)N=C(c1ccc(Cl)cc1)NO2 here?
A: Its Potency is inconclusive: 31.6 µM [inhibitor, partial curve, poor fit].

Q: For Cc1cc(C)cc(C(=O)NC2CCN(c3cc(-c4ccc(F)cc4)[nH]n3)C2)c1 (centres undefined), which Potency is on record?
A: Its Potency is inconclusive: 3.98 µM [inhibitor, partial curve].

Q: Which Potency does the source give for Cc1cccc(NC(=O)Nc2ccc(C)n(CC(=O)NCc3ccccc3Cl)c2=O)c1 here?
A: The Potency was inconclusive: 39.8 µM [inhibitor, partial curve, poor fit].

Q: For COCCCNC(=O)Cc1csc2nc(C)c(-c3cc(C)n(-c4ccccc4F)n3)c(=O)n12, which Potency is on record?
A: Its Potency is active: 28.2 µM.

Q: NC(=O)Cc1c[nH]c2ncc(-c3ccc4c(c3)OCO4)cc12 was tested. Which Potency did it give?
A: The Potency was active: 35.5 µM.

Q: With CCc1ccc(-c2cn3c(n2)sc2cc(C(=O)NCCc4ccc(OC)cc4OC)ccc23)cc1 as the molecule, how does the Potency read?
A: The Potency was inconclusive: 11.2 µM [inhibitor, partial curve, poor fit].

Q: For N#CC1=C(N)OC(c2ccccc2)=C(C(=O)c2ccccc2)C1c1ccccc1 (centres undefined), which Potency is on record?
A: Its Potency is inconclusive: 39.8 µM [inhibitor, partial curve, poor fit].

Q: With O=C(CN1CCN(c2ccc(F)cc2)CC1)N1N=C(c2cc3ccccc3o2)CC1c1ccco1 (centres undefined) as the molecule, how does the “activity change, negative = inhibition” value read?
A: The value was inactive: 13.1%.

Q: With CC(C)(C)C(=O)[C@@H]1[C@@H](C(=O)c2ccccn2)[C@@]2(C(=O)Nc3ccccc32)[C@H]2c3ccccc3C=CN12 as the molecule, how does the Potency read?
A: Its Potency is inconclusive: 12.6 µM [inhibitor, partial curve, poor fit].

Q: How did the Potency turn out when CC1=C(C(=O)OC(C)(C)C)C(c2cccc(F)c2)C(C#N)=C(N)O1 (centres undefined) was run?
A: Its Potency is inconclusive: 31.6 µM [inhibitor, partial curve, poor fit].

Q: Cc1ccc(S(=O)(=O)c2nc(-c3cccs3)oc2N2CCCCC2)cc1 was tested. Which Potency did it give?
A: The Potency was inconclusive: 31.6 µM [inhibitor, partial curve, poor fit].

Q: Which Potency does the source give for COc1ccc2c(c1)c1c(c(=O)n(-c3ccc(OC)c(OC)c3)c(=O)n1Cc1ccccc1C)n2C here?
A: The Potency was inconclusive: 17.8 µM [inhibitor, partial curve, poor fit].

Q: Cc1[nH]c(-c2ccccc2)nc1C(=O)N[C@H](c1cnn(C)c1)C1CC(O)C1 (some centres undefined) was tested. Which “activity change, negative = inhibition” value did it give?
A: The value was inactive: 31.1%.

Q: For Cc1ccsc1/C=C1\Oc2cc(OC(=O)c3ccco3)ccc2C1=O, which “activity change, negative = inhibition” value is on record?
A: Its value is inactive: 17.5%.

Q: How did the Potency turn out when Cc1cc(C)c2[nH]c(C(=O)NCc3ccc(C(=O)N(C)C)o3)c(C)c2c1 was run?
A: Its Potency is inconclusive: 20 µM [inhibitor, partial curve, poor fit].

Q: With COC[C@H]1C[C@@H](NS(=O)(=O)CC(C)C)[C@H](O)[C@@H]1O as the molecule, how does the Potency read?
A: The Potency was inconclusive: 35.5 µM [inhibitor, partial curve].

Q: For Cc1ccc(S(=O)(=O)CCC(=O)OCC(=O)NC2CCCC2)cc1, which “activity change, negative = inhibition” value is on record?
A: The value was inactive: 18.7%.

Q: Which activity change, negative = inhibition does the source give for CCCCN(CCCC)CCNC(=O)c1cn(C)c2ccc(S(=O)(=O)N3CCOCC3)cc2c1=O here?
A: Its activity change, negative = inhibition is inconclusive: -75.4% [inhibitor] [at 11.5 µM].

Q: Which Potency does the source give for CCOc1ccc(OCC)c(Nc2nc3ccccc3c3nnc(C)n23)c1 here?
A: The Potency was inconclusive: 3.16 µM [inhibitor, full curve, poor fit].
